Test results reported in patent publication US7592458B2, “Dermal anesthetic compounds and pharmaceutical compositions for inducing local anesthesia and mitigating neuropathic pain” (priority 2006, dated 2009).
Where a name gives a salt, the structure may show the parent alone.

Target: Sodium Channels (Site 2)
Assay type: binding
Settings: 10 nM [3H]batrachotoxinin, 60 min, 22° C.

Row | SMILES | Ki [nM] | IC50 [nM]
1 | CCCCN1CCCCC1CCN(c1ccccc1)C1CCc2ccccc2C1 (centres unmarked) [Bu-CLAC-34•HCl] | 110 | 
2 | c1ccc(N(CCC2CCCCN2)C2CCc3ccccc3C2)cc1 (centres unmarked) [CLAC-34•HCl] | 180 | 200
3 | CCCN(CCC)CCN(c1ccccc1)C1CCc2ccccc2C1 (centres unmarked) [CLAC-PP•HCl] | 220 | 250
